Laboratory results taken from patent US20200085917A1 (UNIVERSITY OF PITTSBURGH OF THE COMMONWEALTH SYSTEM OF …, published 2020).

Columns and labels:
Test in all cases: GST pull-down, LC-MS/MS
Agk_IPI:IPI00113606.2 = target: T1, Agk_IPI:IPI00113606.2 (mouse, UniProt Q9ESW4 1-421)
T1 sequence (looked up): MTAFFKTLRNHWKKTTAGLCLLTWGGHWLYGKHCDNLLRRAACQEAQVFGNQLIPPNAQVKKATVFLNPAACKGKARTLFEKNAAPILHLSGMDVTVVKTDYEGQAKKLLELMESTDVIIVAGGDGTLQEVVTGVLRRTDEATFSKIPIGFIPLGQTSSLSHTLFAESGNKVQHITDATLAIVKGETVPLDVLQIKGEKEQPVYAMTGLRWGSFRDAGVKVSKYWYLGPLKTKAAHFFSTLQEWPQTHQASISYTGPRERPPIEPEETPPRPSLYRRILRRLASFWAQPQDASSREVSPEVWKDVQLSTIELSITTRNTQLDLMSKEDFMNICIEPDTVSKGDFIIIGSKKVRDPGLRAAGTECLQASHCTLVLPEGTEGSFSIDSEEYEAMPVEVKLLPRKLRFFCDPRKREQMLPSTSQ

Tuba4a_IPI:IPI00117350.1 = Tuba4a_IPI:IPI00117350.1 (mouse, UniProt P68368 1-448)
[1] = target: T2, Slc25a19_IPI:IPI00118826.1 (mouse, UniProt Q9DAM5 1-318)
T2 sequence (looked up): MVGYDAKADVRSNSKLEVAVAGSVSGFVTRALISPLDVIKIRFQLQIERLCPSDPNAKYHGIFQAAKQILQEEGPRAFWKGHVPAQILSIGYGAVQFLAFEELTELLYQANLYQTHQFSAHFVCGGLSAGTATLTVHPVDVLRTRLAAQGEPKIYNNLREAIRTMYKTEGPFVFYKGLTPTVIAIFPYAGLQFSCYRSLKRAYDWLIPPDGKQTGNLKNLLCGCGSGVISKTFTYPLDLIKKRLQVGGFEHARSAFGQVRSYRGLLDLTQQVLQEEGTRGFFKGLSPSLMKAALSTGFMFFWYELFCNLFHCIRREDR

Pycr2_IPI:IPI00123278.1 = target: T3, Pycr2_IPI:IPI00123278.1 (mouse, UniProt Q922Q4 2-320)
T3 sequence (looked up): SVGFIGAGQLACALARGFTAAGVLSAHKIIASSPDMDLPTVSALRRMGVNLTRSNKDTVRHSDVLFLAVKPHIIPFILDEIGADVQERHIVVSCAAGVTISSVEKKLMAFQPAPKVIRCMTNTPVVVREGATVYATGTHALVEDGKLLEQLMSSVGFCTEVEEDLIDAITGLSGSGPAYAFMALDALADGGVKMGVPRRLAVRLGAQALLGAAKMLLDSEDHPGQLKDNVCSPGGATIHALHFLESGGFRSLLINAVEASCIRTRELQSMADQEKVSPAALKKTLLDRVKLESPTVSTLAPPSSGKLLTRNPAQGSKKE

Tpi1_IPI:IPI00467833.6 = Tpi1_IPI:IPI00467833.6 (mouse, UniProt P17751 2-249)
Dci_IPI:IPI00114416.1 = target: T4, Dci_IPI:IPI00114416.1 (mouse, UniProt P42125 29-289)
T4 sequence (looked up): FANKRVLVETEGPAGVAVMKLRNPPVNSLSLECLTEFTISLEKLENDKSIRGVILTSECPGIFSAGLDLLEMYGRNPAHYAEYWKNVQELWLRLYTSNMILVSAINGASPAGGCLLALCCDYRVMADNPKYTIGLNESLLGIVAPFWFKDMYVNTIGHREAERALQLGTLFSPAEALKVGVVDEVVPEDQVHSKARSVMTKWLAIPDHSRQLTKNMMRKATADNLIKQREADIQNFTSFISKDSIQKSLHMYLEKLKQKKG

[2] = target: T5, Tim50 (endogenous, mouse) (mouse, UniProt Q9D880 22-353)
T5 construct: also called Timm50_IPI:IPI00111045.1; Timm50

Rdh14_IPI:IPI00112377.1 = target: T6, Rdh14_IPI:IPI00112377.1 (mouse, UniProt Q9ERI6 1-334)
T6 sequence (looked up): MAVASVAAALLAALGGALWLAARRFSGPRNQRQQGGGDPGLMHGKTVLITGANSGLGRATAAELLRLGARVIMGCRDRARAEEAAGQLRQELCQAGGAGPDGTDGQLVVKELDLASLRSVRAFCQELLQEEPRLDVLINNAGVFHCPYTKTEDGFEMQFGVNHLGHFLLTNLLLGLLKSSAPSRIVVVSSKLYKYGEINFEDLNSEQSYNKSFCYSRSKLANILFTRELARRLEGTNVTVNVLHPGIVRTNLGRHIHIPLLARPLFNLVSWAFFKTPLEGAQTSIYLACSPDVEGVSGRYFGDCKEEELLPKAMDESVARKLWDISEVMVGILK

[3] = target: T7, Ccdc127_IPI:IPI00131843.3 (mouse, UniProt Q3TC33 1-260, limits assumed)
T7 sequence (looked up): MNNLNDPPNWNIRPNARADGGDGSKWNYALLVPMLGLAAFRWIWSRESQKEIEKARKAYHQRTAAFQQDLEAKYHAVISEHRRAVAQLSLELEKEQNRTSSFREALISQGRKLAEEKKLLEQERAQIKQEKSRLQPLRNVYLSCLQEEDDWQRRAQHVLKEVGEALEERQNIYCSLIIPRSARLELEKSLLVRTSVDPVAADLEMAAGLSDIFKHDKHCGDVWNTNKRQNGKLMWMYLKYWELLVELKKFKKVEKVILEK

Dsp_IPI:IPI00553419.3 = Dsp_IPI:IPI00553419.3 (mouse, UniProt E9Q557 1-2883, limits assumed)

Measured: binding result

Sequence of Dsp_IPI:IPI00553419.3 (E9Q557 whole entry): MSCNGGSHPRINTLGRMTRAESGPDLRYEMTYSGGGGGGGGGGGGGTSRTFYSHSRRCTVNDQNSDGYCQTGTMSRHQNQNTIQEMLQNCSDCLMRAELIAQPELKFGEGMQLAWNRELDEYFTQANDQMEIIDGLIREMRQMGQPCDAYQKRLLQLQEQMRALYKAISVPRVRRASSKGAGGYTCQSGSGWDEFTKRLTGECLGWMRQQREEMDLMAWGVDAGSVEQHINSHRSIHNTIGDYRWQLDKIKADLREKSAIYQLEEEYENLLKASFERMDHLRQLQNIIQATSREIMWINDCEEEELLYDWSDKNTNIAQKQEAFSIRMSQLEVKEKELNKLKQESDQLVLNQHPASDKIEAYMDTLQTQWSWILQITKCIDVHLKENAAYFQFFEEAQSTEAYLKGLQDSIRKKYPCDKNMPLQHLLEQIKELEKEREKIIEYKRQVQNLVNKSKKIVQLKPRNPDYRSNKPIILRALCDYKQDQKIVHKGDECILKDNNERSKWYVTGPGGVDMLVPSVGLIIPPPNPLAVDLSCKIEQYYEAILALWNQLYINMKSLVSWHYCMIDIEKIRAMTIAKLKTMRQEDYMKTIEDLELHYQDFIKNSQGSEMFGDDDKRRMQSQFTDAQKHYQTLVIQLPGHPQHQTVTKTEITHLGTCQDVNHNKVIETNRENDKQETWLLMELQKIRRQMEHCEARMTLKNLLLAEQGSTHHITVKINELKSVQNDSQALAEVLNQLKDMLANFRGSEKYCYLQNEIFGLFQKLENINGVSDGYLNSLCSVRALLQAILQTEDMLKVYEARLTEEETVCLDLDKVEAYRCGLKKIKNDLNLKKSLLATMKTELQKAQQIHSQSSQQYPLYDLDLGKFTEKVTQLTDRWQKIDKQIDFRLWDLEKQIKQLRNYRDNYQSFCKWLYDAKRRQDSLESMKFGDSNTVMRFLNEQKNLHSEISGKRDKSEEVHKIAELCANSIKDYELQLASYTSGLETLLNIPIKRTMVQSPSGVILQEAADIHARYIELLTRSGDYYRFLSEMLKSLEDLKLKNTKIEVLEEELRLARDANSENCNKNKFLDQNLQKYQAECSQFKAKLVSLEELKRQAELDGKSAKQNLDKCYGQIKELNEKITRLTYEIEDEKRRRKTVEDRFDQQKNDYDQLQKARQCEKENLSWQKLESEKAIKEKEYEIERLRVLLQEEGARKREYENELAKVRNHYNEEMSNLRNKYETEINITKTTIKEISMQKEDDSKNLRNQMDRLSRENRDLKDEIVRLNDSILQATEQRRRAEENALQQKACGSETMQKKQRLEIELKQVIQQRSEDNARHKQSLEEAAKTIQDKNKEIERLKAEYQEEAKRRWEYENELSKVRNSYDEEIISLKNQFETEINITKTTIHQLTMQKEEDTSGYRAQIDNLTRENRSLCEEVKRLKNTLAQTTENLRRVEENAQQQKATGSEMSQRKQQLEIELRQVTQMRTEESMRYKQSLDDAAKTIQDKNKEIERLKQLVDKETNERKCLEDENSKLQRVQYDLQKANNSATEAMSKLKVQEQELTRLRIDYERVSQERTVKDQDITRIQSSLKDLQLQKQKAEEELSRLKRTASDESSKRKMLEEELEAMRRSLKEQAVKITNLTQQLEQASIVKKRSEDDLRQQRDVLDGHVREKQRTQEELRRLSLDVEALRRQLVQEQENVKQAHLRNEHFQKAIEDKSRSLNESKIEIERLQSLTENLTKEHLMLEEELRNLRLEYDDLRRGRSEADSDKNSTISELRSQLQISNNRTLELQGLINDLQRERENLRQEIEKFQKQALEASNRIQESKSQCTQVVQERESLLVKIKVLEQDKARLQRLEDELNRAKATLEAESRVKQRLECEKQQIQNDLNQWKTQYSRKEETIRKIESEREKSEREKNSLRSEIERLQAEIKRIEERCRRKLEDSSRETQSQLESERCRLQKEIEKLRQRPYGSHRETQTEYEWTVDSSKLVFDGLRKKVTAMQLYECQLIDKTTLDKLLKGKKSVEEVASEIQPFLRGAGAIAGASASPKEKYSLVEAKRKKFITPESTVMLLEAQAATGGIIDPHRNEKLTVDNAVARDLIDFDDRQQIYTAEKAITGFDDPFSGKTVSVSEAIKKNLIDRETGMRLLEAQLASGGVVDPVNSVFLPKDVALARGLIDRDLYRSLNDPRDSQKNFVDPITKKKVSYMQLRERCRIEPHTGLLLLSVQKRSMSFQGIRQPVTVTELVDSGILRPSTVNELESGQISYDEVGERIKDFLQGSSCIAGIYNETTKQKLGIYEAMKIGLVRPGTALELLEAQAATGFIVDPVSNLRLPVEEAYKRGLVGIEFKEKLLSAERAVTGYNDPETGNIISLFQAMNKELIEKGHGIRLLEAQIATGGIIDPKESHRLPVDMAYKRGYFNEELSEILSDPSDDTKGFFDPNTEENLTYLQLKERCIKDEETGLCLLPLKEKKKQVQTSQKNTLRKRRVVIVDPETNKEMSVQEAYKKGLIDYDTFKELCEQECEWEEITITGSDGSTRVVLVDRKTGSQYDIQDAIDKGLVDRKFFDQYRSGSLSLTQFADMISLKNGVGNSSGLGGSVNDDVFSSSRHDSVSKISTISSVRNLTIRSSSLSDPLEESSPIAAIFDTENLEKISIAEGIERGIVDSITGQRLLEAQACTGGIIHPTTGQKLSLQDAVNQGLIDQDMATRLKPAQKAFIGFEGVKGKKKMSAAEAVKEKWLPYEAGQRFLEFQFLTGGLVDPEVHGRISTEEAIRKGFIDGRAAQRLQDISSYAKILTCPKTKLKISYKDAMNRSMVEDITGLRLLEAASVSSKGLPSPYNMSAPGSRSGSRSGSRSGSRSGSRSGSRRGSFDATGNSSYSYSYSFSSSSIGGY
Sequence of Tpi1_IPI:IPI00467833.6 (P17751 2-249 limits assumed): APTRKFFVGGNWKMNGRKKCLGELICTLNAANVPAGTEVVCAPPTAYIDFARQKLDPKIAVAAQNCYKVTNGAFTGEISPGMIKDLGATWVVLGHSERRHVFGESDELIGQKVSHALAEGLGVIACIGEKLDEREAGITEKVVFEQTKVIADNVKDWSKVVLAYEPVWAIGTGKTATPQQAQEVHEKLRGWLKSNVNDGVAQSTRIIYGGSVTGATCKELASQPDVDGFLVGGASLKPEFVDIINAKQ
Sequence of Tuba4a_IPI:IPI00117350.1 (P68368 whole entry): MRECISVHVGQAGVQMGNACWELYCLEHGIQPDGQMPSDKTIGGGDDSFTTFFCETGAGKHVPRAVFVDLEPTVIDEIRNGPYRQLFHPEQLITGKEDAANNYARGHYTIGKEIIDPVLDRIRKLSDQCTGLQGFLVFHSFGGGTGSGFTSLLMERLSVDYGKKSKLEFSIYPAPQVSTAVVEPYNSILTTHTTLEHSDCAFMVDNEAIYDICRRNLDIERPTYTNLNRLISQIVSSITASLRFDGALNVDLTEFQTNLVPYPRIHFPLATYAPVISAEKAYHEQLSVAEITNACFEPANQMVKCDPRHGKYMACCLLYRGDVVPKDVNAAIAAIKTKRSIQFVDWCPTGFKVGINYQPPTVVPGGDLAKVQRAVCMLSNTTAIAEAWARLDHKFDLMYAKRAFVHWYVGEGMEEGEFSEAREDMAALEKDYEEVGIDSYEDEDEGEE
T5 sequence (Q9D880 22-353 limits assumed): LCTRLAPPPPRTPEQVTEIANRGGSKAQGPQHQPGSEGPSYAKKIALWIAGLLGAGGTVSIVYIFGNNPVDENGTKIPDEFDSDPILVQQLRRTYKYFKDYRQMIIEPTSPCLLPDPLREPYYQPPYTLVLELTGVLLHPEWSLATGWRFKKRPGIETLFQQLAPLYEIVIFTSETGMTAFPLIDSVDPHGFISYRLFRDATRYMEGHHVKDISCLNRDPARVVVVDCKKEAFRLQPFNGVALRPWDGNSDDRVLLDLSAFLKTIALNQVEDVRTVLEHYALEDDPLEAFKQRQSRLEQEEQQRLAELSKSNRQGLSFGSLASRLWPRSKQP

B1: GST alone (other)
chain: not shown
notes: Negative control of the pull-downs; also called control GST
no binding: all assays above
